Results reported in article PMC12136788.
The other results are listed elsewhere or left out.

B1: ENSG00000070961:be:win_4101|3pUTR|ENSG00000070961|bound_else_gene|NA|bound_elsewhere_windowed (ssRNA)
RNA: GGGAGUUCUACAGUCCGACGAUCUACAGAUCUGUUUACAAGGUUUGUAGAUACUUUUUUUGUUCCUGUUCAUAGAUGGGAAGCUUCCUUAUAACUGAUGCAGAGAAAAAUUAGUCCUUCAAAUACUGCUGUAUUUUCAGGAAACAACAGAGGAUUGAGCAUCA
B2: ENSG00000198589:be:win_6101|CDS|ENSG00000198589|bound_else_gene|NA|bound_elsewhere_windowed (ssRNA)
RNA: GGGAGUUCUACAGUCCGACGAUCUAGGAAAUCAGAACUCAGAAAACGAGAUCCUCCUGGAAGGCGAUGAUGAUACUCUGUCAUCCGUGGAUGAGAAAGAUUUAGAGAAUCUUGCCGGUCCUGUUAGCCUGAGCACACCAGCUCCAACAGAGGAUUGAGCAUCA
B3: chr2:210678210:210678332:+|3pUTR|ENSG00000021826|unk|total|mutant (ssRNA)
RNA: GGGAGUUCUACAGUCCGACGAUCUUCAUCCAUUUACUAAUACUGUAUUUUUGGUGGACCCGGCUUGCCUAUGUGCUUAUGUGCCGCUUUUUACUUUUUAUGGUGCUGAUUAAUGGUGAUCAAGGCCGGAAAAGUUGCUGUUCUCAACAGAGGAUUGAGCAUCA
B4: chr9:116187394:116187495:+|CDS|ENSG00000182752|msi1|total|mutant (ssRNA)
RNA: GGGAGUUCUACAGUCCGACGAUCUGGGGAACAAGUGGGUGGCAUAUUCAGCCCACUGACCCAGAAGUGCAAAGUGCUCAUGUCCGGGGGCAGUGCCCUGAAUCACAACUACCGGGGCUACAUCGAGCACUUCAGUCUGUGGAACAACAGAGGAUUGAGCAUCA
B5: chr6:4943581:4943691:+|CDS|ENSG00000153046|unk|FALSE|bound_elsewhere (ssRNA)
RNA: GGGAGUUCUACAGUCCGACGAUCUACUUUCAUUCAAUUUAAGAAGCCCAUUAUUGUAGCAGUCAAUGGCCCAGCCAUUGGUCUAGGAGCAUCUAUAUUGCCUCUUUGCGAUGUGGUUUGGGCUAAUGAAAAGGCUUGGUUUCACAACAGAGGAUUGAGCAUCA
B6: ENSG00000070961:be:win_2401|CDS|ENSG00000070961|bound_else_gene|NA|bound_elsewhere_windowed (ssRNA)
RNA: GGGAGUUCUACAGUCCGACGAUCGAUGGCCCAGCACUAAAGAAAGCAGAUGUUGGAUUUGCAAUGGGUAUUGCUGGAACUGAUGUAGCUAAAGAAGCAUCCGAUAUUAUUCUCACAGAUGACAACUUUACAAGCAUUGUUAAACAACAGAGGAUUGAGCAUCA
B7: chr10:87753454:87753555:-|3pUTR|ENSG00000138138|msi1|total|mutant (ssRNA)
RNA: GGGAGUUCUACAGUCCGACGAUCCGUUUAAUGUGAAUUAUAUGUGAAUUUUUUUCAAAAUUUUACUAACCAGAAUUCUGUUACCGGCACCUAACCACGCAGCAUGAGGAAAACGGCACAACACAAUCUUGAGGUGCCUUCUGACAACAGAGGAUUGAGCAUCA
B8: chr1:169124931:169125019:+|5pUTR_CDS|ENSG00000143153|msi1_unk|FALSE|overlapping (ssRNA)
RNA: GGGAGUUCUACAGUCCGACGAUCGAAAUUUCCUUUCGUCCUAAUGAUCCCAAGAGCUAUGAGGCAUAUGUACUGAACAUAGUUAGGUUCCUGGAAAAGUACAAAGAUUCAGCCCAGAGGGAUGACAUGAUUUUUGAAGAUUGUCAACAGAGGAUUGAGCAUCA
B9: ENSG00000198589:be:win_1751|CDS|ENSG00000198589|bound_else_gene|NA|bound_elsewhere_windowed (ssRNA)
RNA: GGGAGUUCUACAGUCCGACGAUCCCAAGGUUCAACUGAUGCUCUAUACUUAUCUGUCCACGGAAUUCAUUGGUACAGUCAACAUAUAUAACACCAUUCGGAGAGUUGGAACAGUGCUUCUCAUCAUGCACACGCUGAAGUACUCAACAGAGGAUUGAGCAUCA
B10: chr20:56370492:56370607:-|CDS|ENSG00000087586|unk|total|mutant (ssRNA)
RNA: GGGAGUUCUACAGUCCGACGAUCUCGGAUGCAUGAUGAGAAGGUGGAUCUCUGGAGCCUUGGAGUUCUUUGCUAUGAAUUUUCCGUUGGGAAGCCUCCUUUUGAGGCAAACACAUACCAAGAGACCUACAAAAGAAUAUCACGCAACAGAGGAUUGAGCAUCA
B11: chr2:65312585:65312700:-|3pUTR|ENSG00000198369|unk|FALSE|unique (ssRNA)
RNA: GGGAGUUCUACAGUCCGACGAUCUGGACCAGGGCUAGAAUGGGGAUUUCAGGUUUCUAUGAGCCUCCCCAUUACCCCUAAAGUAGAACAUUUUUUAAAUUGUGUUGCCACCACUUCUAAAAAUUUAGCAAUAUUAGAAUAGGACAACAGAGGAUUGAGCAUCA
B12: chr1:92387783:92387894:+|3pUTR|ENSG00000122484|unk|total|mutant (ssRNA)
RNA: GGGAGUUCUACAGUCCGACGAUCGGGAGCUCCGUGGGCAAGGAGGCCGGGAUAUAAUUUCUCUUCUUGGCUCCACCAGUAAUCCGCUCUGUGGCCCAGUCACCUAAACUUUCUGGACUUCAGUUCAGGUUGUAUGGCAGCCGGCAACAGAGGAUUGAGCAUCA
B13: chr21:30561100:30561289:-|CDS|ENSG00000244362|control|control|control (ssRNA)
RNA: GGGAGUUCUACAGUCCGACGAUCAGCUACUAUGGAGGCCUAGGCUACGGCUGUGGAGGAUUCGGUGGCCUGGGCUAUGGCUAUAGCUGUGGAUGUGGCAGCUUCCGCAGACUGGGCUAUGGCUGUGGCUAUGGAGGCUACAGACAACAGAGGAUUGAGCAUCA
B14: chr12:98549999:98550103:+|3pUTR|ENSG00000120802|unk|FALSE|unique (ssRNA)
RNA: GGGAGUUCUACAGUCCGACGAUCUGUUUCCCAUACUGUUUUCAGCCUUUUGUUUAUAAUUAGAAAUUGUGAGAAGCUUCAUUUAGUGUUUAAAAAUGUGGGGAGAUAAAUCAGACUUAACAUGUAUGUAAGAUCAAUUCACUUCAACAGAGGAUUGAGCAUCA

These binders were tested against MSI1 full-length (mouse, UniProt Q61474 1-362) (assay: nsRBNS (natural sequence RNA bind-n-seq); RBNS binding buffer (assumed for nsRBNS): 25 mM Tris pH 7.5, 150 mM KCl, 3 mM MgCl2, 0.01% Triton X-100, 500 ug/ml BSA, 20 U/ml SUPERase-In, 4 C; UNK is unkempt and MSI1 is Musashi-1; names of the RNAs are library labels; protein concentration not given here; high values mean tight binding).
Chain of UniProt Q61474 (Q61474 whole entry): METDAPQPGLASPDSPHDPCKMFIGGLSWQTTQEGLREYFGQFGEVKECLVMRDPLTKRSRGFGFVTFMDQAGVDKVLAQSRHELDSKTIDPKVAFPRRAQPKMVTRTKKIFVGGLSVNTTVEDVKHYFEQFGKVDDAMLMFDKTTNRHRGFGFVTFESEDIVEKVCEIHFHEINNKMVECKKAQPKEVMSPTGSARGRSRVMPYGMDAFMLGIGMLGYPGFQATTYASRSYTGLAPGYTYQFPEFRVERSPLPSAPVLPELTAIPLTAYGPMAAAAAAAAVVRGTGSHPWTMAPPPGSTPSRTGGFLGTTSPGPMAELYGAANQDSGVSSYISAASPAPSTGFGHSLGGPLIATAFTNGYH

Q: For B1, which binding signal is on record?
A: 0.545 enrichment R

Q: For B2, which binding signal is on record?
A: 0.402 enrichment R

Q: For B3, which binding signal is on record?
A: 0.246 enrichment R

Q: With B4 as the binder, how does the binding signal read?
A: 0.369 enrichment R

Q: How did the binding signal turn out when B5 was run?
A: 0.445 enrichment R

Q: Which binding signal does the source give for B6 here?
A: 0.431 enrichment R

Q: With B7 as the binder, how does the binding signal read?
A: 0.455 enrichment R

Q: B8 was tested. Which binding signal did it give?
A: 2.6 enrichment R

Q: Which binding signal does the source give for B9 here?
A: 0.28 enrichment R

Q: Which binding signal does the source give for B10 here?
A: 0.324 enrichment R

Q: With B11 as the binder, how does the binding signal read?
A: 11.6 enrichment R

Q: Which binding signal does the source give for B12 here?
A: 0.383 enrichment R

Q: B13 was tested. Which binding signal did it give?
A: 0.462 enrichment R

Q: With B14 as the binder, how does the binding signal read?
A: 27.3 enrichment R
